From the supplement of paper PMC3334620
The full ranking holds about 33,000 sequences; the median of “E-score (-0.5 to 0.5)” is about -0.012, and the highest 2% start at about 0.29. This is one part of the list.

biological target: T1, Ybr033w (UniProt P38073); test: PBM E-score (8-mer binding enrichment) (E-score (-0.5 to 0.5)); higher = stronger / more preferred TF binding; most listed sequences are background and not binding sites; settings: protein concentration: 200 nM; construct: GST-full length
T1 sequence: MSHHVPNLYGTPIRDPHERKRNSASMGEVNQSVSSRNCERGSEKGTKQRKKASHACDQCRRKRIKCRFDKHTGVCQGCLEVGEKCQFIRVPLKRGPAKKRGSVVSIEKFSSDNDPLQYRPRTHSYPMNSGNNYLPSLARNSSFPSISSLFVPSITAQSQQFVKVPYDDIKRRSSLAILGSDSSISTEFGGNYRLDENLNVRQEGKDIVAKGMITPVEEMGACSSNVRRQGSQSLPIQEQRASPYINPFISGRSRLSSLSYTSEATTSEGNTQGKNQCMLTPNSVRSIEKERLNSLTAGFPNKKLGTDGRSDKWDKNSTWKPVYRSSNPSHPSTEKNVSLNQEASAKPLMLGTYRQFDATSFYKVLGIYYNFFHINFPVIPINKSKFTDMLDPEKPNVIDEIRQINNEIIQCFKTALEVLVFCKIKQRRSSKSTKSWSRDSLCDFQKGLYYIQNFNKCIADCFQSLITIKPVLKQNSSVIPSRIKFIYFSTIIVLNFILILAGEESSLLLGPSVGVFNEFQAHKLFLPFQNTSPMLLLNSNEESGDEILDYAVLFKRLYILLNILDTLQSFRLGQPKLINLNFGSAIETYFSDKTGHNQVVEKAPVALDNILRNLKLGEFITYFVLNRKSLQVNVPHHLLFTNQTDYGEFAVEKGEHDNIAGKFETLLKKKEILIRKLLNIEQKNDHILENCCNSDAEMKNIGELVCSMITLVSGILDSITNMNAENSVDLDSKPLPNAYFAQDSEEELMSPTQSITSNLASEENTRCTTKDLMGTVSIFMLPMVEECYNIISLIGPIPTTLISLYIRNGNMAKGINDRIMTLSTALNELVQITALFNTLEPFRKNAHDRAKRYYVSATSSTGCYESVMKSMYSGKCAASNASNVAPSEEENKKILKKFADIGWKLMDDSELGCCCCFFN
How it was run: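 Yeast transcription factors carrying a GST tag, as full-length proteins or DNA-binding domains, were produced by PURExpress in vitro transcription/translation. About 100-200 nM protein was applied to universal all-10-mer Agilent arrays, double-stranded by primer extension on fresh or once-stripped slides. Bound protein was detected with fluorescent anti-GST, and scans were normalised with masliner. The Universal PBM Analysis Suite gave each ungapped eight-base word, pooled with its reverse complement, an E-score, a modified Wilcoxon-Mann-Whitney statistic.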

Row | Sequence | PBM E-score
1 | AAGAGGCG | -0.0966
2 | CTGTAGGA | 0.0305
3 | CGTGACCA | -0.0518
4 | GCCTAGCC | -0.112
5 | AGCTCATA | 0.0514
6 | TTCGTAAA | 0.189
7 | AGGGAGCA | -0.332
8 | AGCATTGA | 0.116
9 | ACACAACT | 0.0265
10 | AATAGTCG | 0.0413
11 | GCGAGCCC | -0.121
12 | CCTAGATA | -0.0707
13 | CGGTAACA | 0.23
14 | GCCCGTGA | -0.263
15 | AATGCCAA | 0.112
16 | ACCTGCCC | -0.269
17 | AAACAAGC | 0.152
18 | AACGGTCC | -0.242
19 | GCTATACC | -0.149
20 | AGCACCTG | -0.00552
21 | CGCTCACC | -0.23
22 | AACTCTTA | 0.2
23 | GGCCCGAC | -0.208
24 | ATGTATTA | 0.293

Row | Sequence | PBM E-score
25 | CGCACCGC | -0.199
26 | ATCGAGGA | 0.113
27 | GACATCGA | -0.216
28 | GTTACGGA | 0.13
29 | ACACTCAA | 0.129
30 | TACTCGCA | 0.0352
31 | AAGCTACC | 0.123
32 | GCTGTACC | -0.172
33 | CCGGGACA | -0.134
34 | AAGGTGCG | -0.163
35 | AGGATTAG | 0.161
36 | CGCACGCC | -0.0621
37 | ATTTGTTC | 0.44
38 | ACTCTCTG | 0.122
39 | GGTCGTAA | 0.139
40 | AGGCATAC | 0.0297
41 | ACATTCAA | 0.0905
42 | AATAACCT | 0.0787
43 | GAGTGTCC | -0.013
44 | AATGGCCC | -0.3
45 | CGGAATGC | 0.00098
46 | ACGTCACG | -0.0505
47 | CCATCATA | 0.059
48 | GAGGTGAC | 0.16

Row | Sequence | PBM E-score
49 | AGCTTACC | 0.00974
50 | GAGACAAC | 0.0289
51 | AAAGCAGT | 0.0842
52 | CAGACCTG | -0.0169
53 | CTTATCTC | 0.15
54 | AACGAGGG | -0.0304
55 | AGGTTAAT | 0.0652
56 | ACTCAGAA | 0.11
57 | GAAGGCTA | 0.0975
58 | CTATGAAC | 0.0891
59 | AACACCAC | -0.0257
60 | GCTGAAAA | 0.102
61 | CGGATCCA | 0.0464
62 | AGTAGTCA | -0.0586
63 | AGGTTTAC | -0.065
64 | AGAGGACT | -0.27
65 | AAGTACAA | 0.135
66 | CTCCCCTC | -0.13
67 | CACGACAA | -0.0495
68 | GGGTATCA | 0.047
69 | ATCCGATA | 0.162
70 | CTCTTTTC | -0.143
71 | CTGAGAAA | 0.0476
72 | AAGATGCG | -0.0293

Row | Sequence | PBM E-score
73 | CTCCCGGA | 0.00352
74 | AACACGAA | 0.19
75 | GACGTGTA | 0.0442
76 | ATGCGCGA | -0.0615
77 | TCGATCCA | -0.0145
78 | ATCACAAG | 0.107
79 | ACTGGAGA | -0.148
80 | ATCAGCAA | 0.0477
81 | AAAGACCC | -0.0784
82 | ATGCTTGA | 0.113
83 | AGCCATTA | 0.0982
84 | GTCAGCAA | -0.00587
85 | ACCATCGA | -0.0688
86 | ACACGTTC | 0.137
87 | TGACATCA | 0.0563
88 | AAGAAACC | 0.0745
89 | TAATTAGA | 0.139
90 | AATGCCGG | -0.0476
91 | GTTGCAAC | -0.0224
92 | CTACATAA | 0.0125
93 | CATAGGCC | -0.172
94 | ACTATTAC | 0.134
